{
  "source": "PubChem BioAssay (Tox21)",
  "note": "Where “and” joins values, the source holds several entries; their conditions need not be identical. Equal values may be shown once. The inconclusive results got no clear call from the source; some entries with a clear call stand among them for comparison. A potency beside an inconclusive call is a rough fit, not a confirmed value. Calls of active or inactive are those of the source. The call rests on the fitted dose curve; in most records, active means well fitted cell-killing curve with a large enough effect in the repeat runs; inconclusive means weak or mixed curves, or effect the other way; inactive means no such curve, though single readings can be large or run the other way. On the % scale 0 is the no-effect control and ±100 the full control effect; potency means the concentration at half of the fitted maximal effect; tags describe the fitted curve by direction and shape.",
  "data": [
    {"assay": "qHTS assay to identify small molecule antagonists of the vitamin D receptor (VDR) signaling pathway - cell viability counter screen (AID 743225); further: nearly all actives have a fitted effect of over 50% in size", "conditions": "VDR-bla HEK293T viability, CellTiter-Glo luminescence, 16 h; viability change, negative = cytotoxic: at 61 µM (top of the series) unless noted", "description": "U.S. Tox21 Program National Center for Advancing Translational Sciences [NCATS] NIH Chemical Genomics Center [NCGC] U.S. Environmental Protection Agency [EPA] National Institutes of Environmental Health Sciences [NIEHS] National Toxicology Program [NTP] U.S. Food and Drug Administration [FDA] Tox21 Assay Overview: The vitamin D receptor (VDR), a member of nuclear hormone receptor superfamily, plays a critical role in calcium homeostasis and bone metabolism. It is also involved in cell differentiation and growth, and thrombogenicity. To identify the compounds that inhibit VDR signaling, the VDR-UAS-bla HEK 293T cell line (Invitrogen, Carlsbad, CA, USA) containing a beta-lactamase reporter gene under the control of an upstream activator sequence (UAS) was used to screen the Tox21 10K compound library. The cytotoxicity of the Tox21 compound library against the VDR-bla cell line was tested in parallel by measuring the cell viability using CellTiter-Glo assay (Promega, Madison, WI) in the same wells.\nTox21 Assay Protocol Summary: VDR-bla cells were dispensed at 2,000 cells/5 uL of assay medium per well into black wall/clear-bottom 1536-well plates using a Multidrop Combi (Thermo Fisher Scientific, Waltham, MA) dispenser. After the assay plates were incubated at a 37C and 5% CO2 for 4 h, 23 nL of compounds dissolved in DMSO, positive controls or DMSO only was transferred to the assay plate by a Pintool station (Kalypsys, San Diego, CA), followed by addition of 1 uL of 1-alpha, 25-Dihydroxy Vitamin D3 (3 nM, final concentration in the wells) using a Bioraptr Flying Reagent Dispenser (FRD) workstation (Beckman Coulter, Indianapolis, IN). The plates were incubated at 37C and 5% CO2 for 16 h, and then 1 uL of LiveBLAzerTM B/G FRET substrate was added using a Bioraptr FRD. The plates were incubated at room temperature for 2 h and fluorescence intensity was measured by an Envision plate reader (PerkinElmer, Shelton, CT). For cell viability readout that measures cytotoxicity, 3 ul/well of CellTiter-Glo reagent was added into the assay plates using a Bioraptr FRD. After 30 min incubation at room temperature, the luminescence intensity in the plates was measured using a ViewLux plate reader (PerkinElmer).", "values": [
      {"smiles": "C=C[Si](OCC)(OCC)OCC", "Potency": "inconclusive: 12300 nM [cytotoxic, single point]"},
      {"smiles": "CC(C)=CCC/C(C)=C/C=N/O", "Potency": "inconclusive: 11000 nM [cytotoxic, full curve, poor fit]"},
      {"smiles": "[O]=[Mo](=[O])=[O]", "viability change, negative = cytotoxic": "inactive: 2.26% [at 28.5 µM]"},
      {"smiles": "CC(C)(C(=O)O)c1ccc(C(O)CCCN2CCC(C(O)(c3ccccc3)c3ccccc3)CC2)cc1", "note": "(stereo not given)", "viability change, negative = cytotoxic": "inactive: 0.667%"},
      {"smiles": "CC(C)(C)OC(=O)c1ccc(O)cc1", "Potency": "inconclusive: 436 nM [cytotoxic, full curve, poor fit]"},
      {"smiles": "CCOc1ccc(O)cc1", "viability change, negative = cytotoxic": "inconclusive: -13.6% [cytotoxic]"},
      {"smiles": "OCCCc1ccccc1", "Potency": "inconclusive: 1.9 nM [cytotoxic, full curve, poor fit]"},
      {"smiles": "Nc1ccc(S(=O)(=O)Nc2ccnn2-c2ccccc2)cc1", "Potency": "inconclusive: 52.2 nM [rising, partial curve, poor fit]"},
      {"smiles": "Nc1ccc(S(=O)(=O)O)c(N)c1", "Potency": "inconclusive: 2190 nM [cytotoxic, single point]"},
      {"smiles": "NC(CS)C(=O)O", "note": "(stereo not given)", "Potency": "inconclusive: 107 nM [rising, partial curve, poor fit]"},
      {"smiles": "Cc1cc(=O)[nH]c(=S)[nH]1", "Potency": "inactive"},
      {"smiles": "CN(C)C", "Potency": "inconclusive: 490 nM [cytotoxic, single point]"},
      {"smiles": "CCCCCC(C)N", "note": "(stereo not given)", "viability change, negative = cytotoxic": "inactive: -2.41%"},
      {"smiles": "Nc1ccc(/C=C/c2ccc(N)cc2S(=O)(=O)O)c(S(=O)(=O)O)c1", "viability change, negative = cytotoxic": "inactive: 9.91% [at 0.628 µM]"},
      {"smiles": "COc1ccc2cc1Oc1cc3c(cc1OC)CC[N+](C)(C)[C@H]3Cc1ccc(cc1)Oc1c(OC)c(OC)cc3c1[C@@H](C2)[N+](C)(C)CC3", "viability change, negative = cytotoxic": "inactive: -12.5%"},
      {"smiles": "Cn1c(=O)c2c(ncn2CC(O)CO)n(C)c1=O", "note": "(stereo not given)", "viability change, negative = cytotoxic": "inactive: 3.12%"},
      {"smiles": "O=C1NC2NC(=O)NC2N1", "note": "(stereo not given)", "viability change, negative = cytotoxic": "inconclusive: -14.4% [cytotoxic]"},
      {"smiles": "C[C@](N)(Cc1ccc(O)c(O)c1)C(=O)O", "Potency": "inconclusive: 3.1 nM [rising, full curve]"},
      {"smiles": "NS(=O)(=O)c1ccccc1OC(F)(F)F", "Potency": "inconclusive: 30900 nM [cytotoxic, full curve, poor fit]"},
      {"smiles": "OC1OC[C@@H](O)[C@H](O)[C@H]1O", "note": "(stereo not given in full)", "viability change, negative = cytotoxic": "inactive: 6.47%"},
      {"smiles": "CCOC(=O)n1ccn(C)c1=S", "Potency": "inconclusive: 3 nM [rising, full curve, poor fit]"},
      {"smiles": "C=C(C)C(=O)OCC(O)CO", "note": "(stereo not given)", "viability change, negative = cytotoxic": "inactive: 20%"},
      {"smiles": "NC(=O)c1cc[n+](CC2=C(C(=O)[O-])N3C(=O)[C@@H](NC(=O)Cc4cccs4)[C@H]3SC2)cc1", "Potency": "inconclusive: 0.6 nM [rising, full curve]"},
      {"smiles": "CC(c1cc2ccccc2s1)N(O)C(N)=O", "note": "(stereo not given)", "Potency": "inactive and inconclusive: 601 nM [cytotoxic, single point]"},
      {"smiles": "CC(C)=CCl", "Potency": "inconclusive: 5490 nM [cytotoxic, single point]"},
      {"smiles": "CN(C)CCN(C)CCN(C)C", "viability change, negative = cytotoxic": "inconclusive: 0.394% [cytotoxic]"},
      {"smiles": "CC(C)=CC(C)(C)C", "Potency": "inconclusive: 4790 nM [cytotoxic, full curve, poor fit]"},
      {"smiles": "CCCC1CCCC(=O)O1", "note": "(stereo not given)", "Potency": "inconclusive: 12300 nM [cytotoxic, full curve]"},
      {"smiles": "NCCCC(N)(C(=O)O)C(F)F", "note": "(stereo not given)", "viability change, negative = cytotoxic": "inactive: -1.78%"},
      {"smiles": "FC(F)(F)C(F)(F)C(F)(F)C(F)(F)C(F)(F)C(F)(F)C(F)(F)C(F)(F)C(F)(F)C(F)(F)F", "Potency": "inconclusive: 9 nM [cytotoxic, single point]"},
      {"smiles": "C=CC(C)CCCC(C)(C)O", "note": "(stereo not given)", "Potency": "inconclusive: 3.5 nM [cytotoxic, full curve, poor fit]"},
      {"smiles": "N=C(N=C(N)N)N1CCOCC1", "viability change, negative = cytotoxic": "inactive: 20.8%"},
      {"smiles": "CCOC(=O)OCC/C(SC(=O)OCC)=C(\\C)N(C=O)Cc1cnc(C)nc1N", "Potency": "inconclusive: 535 nM [cytotoxic, single point]"},
      {"smiles": "CCCCO", "viability change, negative = cytotoxic": "inactive: 0%"},
      {"smiles": "CNC(=S)N(C)C", "Potency": "inactive"},
      {"smiles": "C=CC(=O)CCCCC", "Potency": "inconclusive: 7.2 nM [cytotoxic, full curve, poor fit]"},
      {"smiles": "C[C@H](CCC(=O)NCC(=O)O)[C@H]1CC[C@H]2[C@@H]3[C@H](O)C[C@@H]4C[C@H](O)CC[C@]4(C)[C@H]3C[C@H](O)[C@]12C", "Potency": "inconclusive: 424 nM [rising, full curve, poor fit]"},
      {"smiles": "CCCCCCCC/C=C\\CCCCCCCC(=O)OC(CO)CO", "Potency": "inconclusive: 21900 nM [cytotoxic, single point]"},
      {"smiles": "NS(=O)(=O)Cc1noc2ccccc12", "viability change, negative = cytotoxic": "inactive: 0.919%"},
      {"smiles": "CC1(c2ccccc2)OC(C(=O)O)=CC1=O", "note": "(stereo not given)", "viability change, negative = cytotoxic": "inconclusive: -12.1% [cytotoxic]"}
    ]}
  ]
}
